The campaign covered roughly 310,000 compounds. About 14,000 (4.5%) showed an effect of 50% or more. The effect is printed as a negative number. The list shows a part of the results.
These compounds were tested against human ether-à-go-go-related gene (hERG) potassium channel (human, UniProt Q12809) (assay: primary screen, population patch clamp on CHO cells stably expressing hERG).
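Further: peak tail current of the secondary pulse compared with the same well before compound.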

human ether-à-go-go-related gene (hERG) potassium channel, sequence (Q12809 whole entry, looked up): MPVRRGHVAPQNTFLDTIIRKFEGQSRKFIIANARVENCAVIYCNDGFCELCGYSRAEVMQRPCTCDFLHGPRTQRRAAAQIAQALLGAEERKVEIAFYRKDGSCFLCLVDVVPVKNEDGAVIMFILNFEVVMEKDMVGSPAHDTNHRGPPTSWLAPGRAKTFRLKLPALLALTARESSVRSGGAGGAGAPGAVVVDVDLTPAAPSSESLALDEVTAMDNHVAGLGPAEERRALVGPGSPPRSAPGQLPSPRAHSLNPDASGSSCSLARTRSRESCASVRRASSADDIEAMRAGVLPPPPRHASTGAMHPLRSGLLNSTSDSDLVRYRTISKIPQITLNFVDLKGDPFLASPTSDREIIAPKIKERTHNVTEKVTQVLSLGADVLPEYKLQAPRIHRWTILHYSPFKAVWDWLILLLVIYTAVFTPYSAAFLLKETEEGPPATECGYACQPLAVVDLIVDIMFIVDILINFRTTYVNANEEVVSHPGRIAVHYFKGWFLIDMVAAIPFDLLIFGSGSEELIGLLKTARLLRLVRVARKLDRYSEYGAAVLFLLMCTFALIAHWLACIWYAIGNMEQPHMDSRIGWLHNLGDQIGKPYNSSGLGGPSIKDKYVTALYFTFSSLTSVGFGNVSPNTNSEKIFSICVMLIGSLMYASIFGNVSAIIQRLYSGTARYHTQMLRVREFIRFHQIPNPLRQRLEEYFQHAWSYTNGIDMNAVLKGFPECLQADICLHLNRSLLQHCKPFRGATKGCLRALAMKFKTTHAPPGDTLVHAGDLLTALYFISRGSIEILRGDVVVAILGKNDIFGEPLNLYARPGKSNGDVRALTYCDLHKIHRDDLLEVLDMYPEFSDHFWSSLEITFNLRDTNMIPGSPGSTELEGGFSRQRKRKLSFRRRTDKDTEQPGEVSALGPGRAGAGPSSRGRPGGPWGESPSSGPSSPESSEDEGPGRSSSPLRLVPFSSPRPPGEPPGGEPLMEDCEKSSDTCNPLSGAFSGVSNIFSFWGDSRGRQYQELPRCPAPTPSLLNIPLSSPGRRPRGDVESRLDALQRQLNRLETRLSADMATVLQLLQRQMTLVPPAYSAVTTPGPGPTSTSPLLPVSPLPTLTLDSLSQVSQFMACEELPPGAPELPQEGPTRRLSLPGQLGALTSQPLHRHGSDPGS

SMILES | hERG current change (%, negative = inhibition) at 10uM [%]
CN(C)CCOCCOc1ccc(Cl)cc1C(C)(C)C.O=C(O)C(=O)O | -37.3
C=Cn1ccnc1P(=S)(c1nccn1C=C)c1nccn1C=C | 18.7
CCCCN(C)C(=O)c1nc2ccccn2c1CNCCCn1ncc2ccccc21 | -55
COc1cccc(CN(C)C(=O)CCNC(=O)c2ccco2)c1 | 1.01
O=c1nc(/C=C/c2ccc(Cl)cc2Cl)cc(C(F)(F)F)[nH]1 | 5.22
O=S(=O)(Nc1ccccc1Cl)c1cc(NC(=S)NCCN2CCOCC2)ccc1Cl | 14
C=CCn1c(CSCc2ccccc2)nnc1SCC(=O)N1CCN(c2ccccc2)CC1 | -23.6
CC1SC2(NC1=O)C1CC3CC(C1)CC2C3 (centres unmarked) | 3.83
Cl.O=C(c1ccc(Br)cc1)C(CN1CCOCC1)c1ccccc1 (centres unmarked) | 6.72
CC(C)(C)NC(=O)NC(=O)COC(=O)c1cc(=O)[nH]c2ccccc12 | 0.0254
Cc1occc(=O)c1OCc1c(Cl)cccc1Cl | 10.7
C[C@@]12C(=O)N(c3cccc(F)c3)C(=O)N1[C@H](c1ccc(F)cc1)[C@@H]1C(=O)N(C3CCCCC3)C(=O)[C@@H]12 | -0.893
Cc1cc(C)n(-c2cccc(Cl)c2C#N)n1 | 7.39
COc1ccccc1NC(=O)CC(NCCN(C)C)C(=O)O (centres unmarked) | 30.1
CCOC(=O)C1=C(O)C(=O)N(c2ccc(S(N)(=O)=O)cc2)C1c1ccc(OC)cc1 (centres unmarked) | -2.06
COc1ccc(C2N(Cc3ccccc3)CCN2Cc2ccccc2)cc1[N+](=O)[O-] | -29.9
O=S(=O)([N-]c1nc2ccccc2nc1-n1cc[n+](Cc2ccccc2)c1)c1ccc(Cl)cc1 | 13.2
Cc1cc(C)nc(NC(=S)Nc2cccc(F)c2)c1 | 7.1
COc1ccccc1Cn1c(=O)c2ccccc2n2c(SCC(=O)N3CCCCC3)nnc12 | 15.2
Cc1nc2sc(C(c3ccco3)N3CCN(c4ccccc4)CC3)c(O)n2n1 (centres unmarked) | -13.2
Cc1nn(CC(=O)Nc2ccc3c(c2)CCC3)c(C)c1[N+](=O)[O-] | 19.1
COCCn1c(C)cc(C(=O)CN2C(=O)NC3(CCCCCC3)C2=O)c1C | -27.8

SMILES | hERG current change (%, negative = inhibition) at 10uM [%]
CCOc1ccc(C(CC(=O)O)n2cnnn2)cc1OC (centres unmarked) | 23.9
C#CCN(CC=C)C(=O)c1cccc(OC2CCN(S(C)(=O)=O)CC2)c1 | 5.12
O=C1COc2ccc(S(=O)(=O)Nc3ccc4c(c3)OCO4)cc2N1 | 19.4
CC(=O)Nc1ccc(S(=O)(=O)N2CCSC2c2ccco2)cc1 (centres unmarked) | -2.55
O=C(Nc1nc(-c2ccc(Cl)cc2)cs1)C1CCCO1 (centres unmarked) | -41
CCOC(=O)C(=O)c1c(-c2ccccc2)nc2ccccn12 | 1.18
O=C(NNc1cccc(Cl)n1)c1ccccc1CC[N+](=O)[O-] | 15
CCOc1ccc(C(=O)CSc2nnc(C3CC3)n2C)cc1 | 5.81
O=C(COC(=O)C1(c2ccc(Cl)cc2)CCCC1)N1CCc2ccccc21 | -1.16
C(#CCN1CCOCC1)COCCOC(c1ccccc1)c1ccccc1 | 7.15
CCOC(=O)c1nnn(-c2ccccc2C#N)c1C | -0.0597
CCOC(=O)C1NN=C(C(=O)c2ccccc2)C1c1ccc(OC)cc1 (centres unmarked) | -9
Cc1ccc(CS(=O)(=O)Cc2ccc(C(=O)NC3CCCCCC3)o2)cc1 | 0.299
Cc1ccccc1C(=O)Nc1c(C(=O)N(CCN(C)C)Cc2ccco2)oc2ccccc12 | -79.7
Cc1cccc(-c2nn(-c3ccccc3)cc2C(=O)NCC(c2cccs2)N2CCOCC2)c1 (centres unmarked) | -4.33
O=C(Nc1ccccc1O)c1csc2c1CCCC2 | 13.7
O=C1NC2(CCCCCC2)C(=O)N1Cc1ccccc1 | -7.82
CCOc1ccccc1NC(=O)COC(=O)c1cc[n+]([O-])cc1 | 12.3
O=C(CN(C(=O)c1csnn1)c1ccc(Cl)cc1)NC1CCCC1 | -4.76
CCN(C(=O)C1CC1)C1CCS(=O)(=O)C1 (centres unmarked) | 11.6
COc1cc2c3c(c1)c(N=NC(N)=S)c(O)n3C(C)(C)C=C2C | 27.3
CC(C)(C)OC(=O)NCCc1nnc(SCC(=O)Nc2cccc(Cl)c2)o1 | 6.91

From PMC4336329 (PLoS ONE, 2015)
